# Measured values reported in PMC2854127, “Structural Basis for Fe–S Cluster Assembly and tRNA Thiolation Mediated by IscS Protein–Protein Interactions” (PLoS Biology, 2010).
# Experiments:
# IscS-IscU complex = IscS-IscU complex (Escherichia coli, UniProt P0A6B9); experiment: X-ray crystal structure, […] Å; format: binding; conditions: covalent; internal aldimine with Lys206 of IscS; crystals from 0.2 M sodium nitrate, 16% PEG 8000, 0.1 M Bicine pH 9
# IscS-TusA complex = IscS-TusA complex (Escherichia coli, UniProt P0A6B9); experiment: X-ray crystal structure, […] Å (two crystal forms); format: binding; conditions: covalent; internal aldimine with Lys206 of IscS; crystals from 0.12 M magnesium formate, 20% PEG 3350
# IscS-TusA complex, sequence (P0A6B9 whole entry, looked up, one chain of several): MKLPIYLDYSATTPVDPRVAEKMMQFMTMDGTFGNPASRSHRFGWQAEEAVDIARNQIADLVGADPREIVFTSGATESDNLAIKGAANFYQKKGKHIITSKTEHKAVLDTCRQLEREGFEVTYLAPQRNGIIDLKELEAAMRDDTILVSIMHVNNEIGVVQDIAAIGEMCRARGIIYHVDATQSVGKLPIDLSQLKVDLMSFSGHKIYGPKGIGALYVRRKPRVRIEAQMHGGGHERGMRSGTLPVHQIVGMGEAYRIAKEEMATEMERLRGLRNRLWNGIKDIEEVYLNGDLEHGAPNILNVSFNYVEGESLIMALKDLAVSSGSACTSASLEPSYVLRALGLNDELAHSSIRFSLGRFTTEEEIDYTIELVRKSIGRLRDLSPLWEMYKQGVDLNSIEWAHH
# IscS-IscU complex, sequence (P0A6B9 whole entry, looked up, one chain of several): as above
compound,measurement,setting,value
Cc1ncc(COP(=O)(O)O)c(C=O)c1O [pyridoxal-5′-phosphate],"X-ray crystal structure, 3.0 Å",IscS-IscU complex,presence of the PLP cofactor as an internal aldimine covalently bound to Lys206
same,"X-ray crystal structure, 2.45 Å (two crystal forms)",IscS-TusA complex,presence of the PLP cofactor as an internal aldimine covalently bound to Lys206
